The record followed here is patent US9975943B2, “Polypeptides” (AFFIBODY AB, priority 2013, dated 2018).

Like-named read-outs stand apart in the source and are kept apart here.

Series [1] in a line: CD analysis with variable temperature measurement. The note with it: His6-tagged Z variants 0.5 mg/ml in PBS; CD at 221 nm, 20 to 90° C. Type of series: physicochemical. Here is the method: Purified His6-tagged Z variants were diluted to 0.5 mg/ml in PBS. For each diluted Z variant, a CD spectrum at 250-195 nm or 250-190 nm was obtained at 20° C. In addition, a variable temperature measurement (VTM) was performed to determine the melting temperature (Tm). In the VTM, the absorbance was measured at 221 nm while the temperature was raised from 20 to 90° C., with a temperature slope of 5° C./min. A new CD spectrum was obtained at 20° C. after the heating procedure in order to study the refolding ability of the Z variants. The CD measurements were performed on a Jasco J-810 spectropolarimeter (Jasco Scandinavia AB) using a cell with an optical path-length of 1 mm.

The target in the next series is T1, hFcRn (Homo sapiens, UniProt P55899).
T1 construct: made in house; host or cells: human SKOV-3 cells, lentivirally transduced, secreted; purified on immobilized human IgG
T1 sequence (P55899 24-290): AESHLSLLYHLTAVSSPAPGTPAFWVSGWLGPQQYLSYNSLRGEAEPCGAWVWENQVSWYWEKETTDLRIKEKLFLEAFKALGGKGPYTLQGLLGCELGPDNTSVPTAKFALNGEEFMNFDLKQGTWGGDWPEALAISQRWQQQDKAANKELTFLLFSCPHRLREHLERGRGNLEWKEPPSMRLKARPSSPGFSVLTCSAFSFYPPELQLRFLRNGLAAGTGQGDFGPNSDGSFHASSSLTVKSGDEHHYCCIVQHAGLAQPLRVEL
T1 sequence (P61769 21-119 partner): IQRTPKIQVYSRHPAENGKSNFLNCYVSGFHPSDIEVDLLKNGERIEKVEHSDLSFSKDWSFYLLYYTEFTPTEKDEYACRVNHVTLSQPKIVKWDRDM
The series is described as follows: Biacore 3000 affinity, one site binding saturation model. The note with it: His6-tagged, 25° C. Here is the method:
(§1) In a separate experiment, the affinity of the interactions of Z variants to hFcRn (SEQ ID NO:1065) and mFcRn (SEQ ID NO:1070), respectively, was measured at both pH 6.0 and pH 7.4 on a Biacore 3000 instrument (GE Healthcare). hFcRn and mFcRn were produced essentially as described in Example 1 but using mouse 3T3 cells instead of human SKOV-3 cells for production of mFcRn, and immobilized on separate flow cells on a CM5 chip in acetate buffer at pH 4.65. The immobilization level was approximately 1000 RU for both receptors. A reference flow cell was created by activation and deactivation. 0.005% PCT pH 6.0 or 7.4 was used as running buffer and for dilution of the analytes. All analyses were performed at 25° C. […] The affinities were derived using GraphPad Prism 5 software, using a one site binding saturation model.

The target of the next series is T2, mFcRn (Mus musculus, UniProt Q61559, INS109QKRG).
T2 construct: made in house; host or cells: mouse 3T3 cells
T2 sequence (Q61559 with tags, fused parts or gaps INS109QKRG): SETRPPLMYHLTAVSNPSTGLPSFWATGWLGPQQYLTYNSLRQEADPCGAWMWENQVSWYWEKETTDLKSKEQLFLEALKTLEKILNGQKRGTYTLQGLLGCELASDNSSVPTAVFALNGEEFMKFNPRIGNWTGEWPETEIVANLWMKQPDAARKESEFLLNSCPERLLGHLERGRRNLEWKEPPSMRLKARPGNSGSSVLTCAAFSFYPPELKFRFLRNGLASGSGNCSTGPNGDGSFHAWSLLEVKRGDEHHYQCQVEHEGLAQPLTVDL
T2 sequence (P01887 21-119 partner): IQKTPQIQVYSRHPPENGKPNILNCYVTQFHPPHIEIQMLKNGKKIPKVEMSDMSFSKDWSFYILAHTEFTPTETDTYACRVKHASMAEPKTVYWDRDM
Described as above. The settings on record: His6-tagged, 25° C. Here is the method:
as §1

Series [2] concerns the target T3, human FcRn-eGFP transduced HeLa cells (Homo sapiens, UniProt P55899).
T3 construct: expressed in transfected cells; host or cells: HeLa cervix adenocarcinoma cells (lentiviral transduction), formaldehyde-fixed and saponin-permeabilised
The series is described as follows: Flow cytometry binding of Alexa647 labeled Z variants to FcRn-eGFP HeLa cells. Type of series: cell-based. The settings on record: 620 nM Alexa647 labeled His6-tagged Z variant; pH 6.0. Here is the method:
(§2) hFcRn-eGFP and mFcRn-eGFP HeLa cells were harvested by trypsination and washed twice in PBS at pH 6.0 before counting. 100,000 cells were pipetted per well of a v-bottomed 96 well plate (Nunc, cat no 277143) and the cells in the plate were subsequently pelleted at 1,700 rpm for 4 min at 4° C. The supernatants were removed and the cells were fixed with 50 μl of 2% formaldehyde (Sigma Aldrich, cat. no. F8775) in PBS at pH 6.0 for 10 min at RT. […] Transduced HeLa cells, incubated with buffer alone, were used as control. The cells were incubated for 1 h at 8° C. on a shaker in the dark, washed with 2×100 μl PBSC and resuspended in 180 μl of PBS pH 6.0 plus 1% BSA (fraction V, Merck, cat. no. 1.12018.0100). 10,000 cells/well were analyzed in a Gallios Flow Cytometer (Beckman Coulter) and the data was analyzed using Kaluza software (Beckman Coulter).

Series [3] concerns the target T4, mouse FcRn-eGFP transduced HeLa cells (Mus musculus, UniProt Q61559, INS109QKRG).
T4 construct: expressed in transfected cells; host or cells: HeLa cervix adenocarcinoma cells (lentiviral transduction), formaldehyde-fixed and saponin-permeabilised
T4 sequence (Q61559 with tags, fused parts or gaps INS109QKRG): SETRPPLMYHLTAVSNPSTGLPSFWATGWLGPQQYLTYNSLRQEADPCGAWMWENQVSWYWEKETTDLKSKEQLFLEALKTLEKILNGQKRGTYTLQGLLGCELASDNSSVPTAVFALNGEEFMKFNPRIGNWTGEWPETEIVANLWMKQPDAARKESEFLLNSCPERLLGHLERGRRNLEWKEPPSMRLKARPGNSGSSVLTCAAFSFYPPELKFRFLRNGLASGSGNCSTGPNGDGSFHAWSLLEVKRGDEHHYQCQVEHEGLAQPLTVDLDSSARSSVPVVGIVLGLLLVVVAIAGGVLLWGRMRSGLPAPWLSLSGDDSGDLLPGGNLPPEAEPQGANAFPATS
T4 sequence (P01887 21-119 partner): T2 sequence (P01887 21-119 partner)
Described as above. The settings on record: 620 nM Alexa647 labeled His6-tagged Z variant; pH 6.0. Type of series: cell-based. The protocol:
as §2

Series [4] addresses T5, human FcRn (Homo sapiens, UniProt P55899). Briefly: AlphaLISA blocking assay (IgG binding to FcRn). Further details: purchased Biorbyt orb84388. The note with it: 10 nM biotinylated human FcRn, pH 6.0. The protocol: The potential of Z variants to inhibit binding of IgG to FcRn was analyzed in an AlphaLISA assay with an EnSpire multiplate reader 2300 (Perkin Elmer). Human IgG (Roactemra) was immobilized on AlphaLISA acceptor beads (Perkin Elmer, cat. no. 6772002) according to the manufacturer's recommendations. Stepwise serial dilutions 1:3 of His-tagged Z variants to final concentrations of 250 nM to 38 pM were made in a 384-well plate (Perkin Elmer, cat. no. G6005350) and incubated for 45 min with 10 nM biotinylated human FcRn (Biorbyt, cat. no. orb84388; biotinylated essentially as described in Example 2) in AlphaLISA buffer (Perkin Elmer, cat. no. AL000F) adjusted to pH 6.0 using HCl. IgG-coated Acceptor beads were added to a final concentration of 10 μM and incubated for 45 min. Finally, streptavidin coated Donor beads (Perkin Elmer, cat. no. 6772002) were added to a final concentration of 40 μg/ml and incubated for 30 min. All incubations were performed at RT in the dark. The plate was analyzed in the EnSpire instrument and the IC50 values were calculated using GraphPad Prism 5.
The potential of Z variants to inhibit binding of IgG to FcRn was analyzed in the AlphaLISA assay described in Example 3.
For orientation: In Alpha technology, singlet oxygen from a donor bead excites a nearby acceptor bead.

Series [5] concerns the target T5, human FcRn. Briefly: Biacore kinetic analysis, maturated Z variants. More on the design: purchased Biorbyt orb84388. The series is classed as binding. The settings on record: pH 6.0, His6-tagged, approximate. The protocol: The interaction of FcRn binding His6-tagged Z variants with human FcRn was analyzed in a Biacore 2000 instrument essentially as described in Example 3. Human FcRn purchased from Biorbyt (cat. no. orb84388) was used as target protein. The analytes were injected during 2 minutes at 30 μl/min. The dissociation phase was 4 minutes and the equilibration time between the analyte injections was 30 minutes.
In another experiment, approximate kinetic constants (kon and koff) and affinities (KD) were determined for a subset of Z variants. Injected concentrations were 540 nM, 180 nM, 60 nM, 20 nM and 6.7 nM.
A general note: In SPR one partner is held on a chip, and binding of the other changes the refractive index at the surface.

In series [6] the target is T5, human FcRn. Briefly: Biacore kinetic analysis of His6-tagged Z variants. More on the design: made in house; host or cells: human SKOV-3 cells, lentivirally transduced, secreted; purified on immobilized human IgG. Type of series: binding. The note with it: hFcRn, pH 6.0, Langmuir 1:1 model, approximate. Here is the method: The interaction of FcRn binding His6-tagged Z variants with human FcRn was analyzed in a Biacore 2000 instrument (GE Healthcare). Human FcRn was immobilized in a flow cell on the carboxylated dextran layer of a CM5 chip surface (GE Healthcare). The immobilization was performed using amine coupling chemistry according to the manufacturer's protocol and using HBS-EP (GE Healthcare) as running buffer. One flow cell surface on the chip was activated and deactivated for use as blank during analyte injections. In the two binding experiments presented below, McIlvaines phosphate-citrate buffer pH 6.0 supplemented with 0.005% Tween-20 (0.005% PCT) was used as running buffer. In all experiments, a flow rate of 50 μl/min was used.
In another experiment, approximate kinetic constants (kon and koff) and affinities (KD) were determined for a subset of His6-tagged Z variants. Three concentrations of the Z variants were injected for 1 minute followed by dissociation in running buffer for 1 minute. The surfaces were equilibrated with running buffer during 7.5 minutes before the start of next cycle. […] Kinetic constants were calculated from the sensorgrams using the Langmuir 1:1 model of BiaEvaluation software 4.1 (GE Healthcare).

Setting [7] is: His6-tagged primary Z variants and dimers.
[8] abbreviates: maturated His6-tagged monomeric Z variants.

T3 sequence (P55899 24-365): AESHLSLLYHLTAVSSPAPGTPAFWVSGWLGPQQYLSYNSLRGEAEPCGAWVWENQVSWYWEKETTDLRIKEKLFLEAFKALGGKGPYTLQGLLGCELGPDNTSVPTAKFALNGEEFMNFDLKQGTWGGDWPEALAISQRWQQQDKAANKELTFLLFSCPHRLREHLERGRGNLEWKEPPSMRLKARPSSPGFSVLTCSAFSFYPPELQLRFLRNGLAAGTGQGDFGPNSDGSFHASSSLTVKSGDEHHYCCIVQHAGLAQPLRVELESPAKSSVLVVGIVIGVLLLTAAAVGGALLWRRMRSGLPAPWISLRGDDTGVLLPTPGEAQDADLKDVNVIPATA
T3 sequence (P61769 21-119 partner): as the sequence (P61769 21-119 partner) above

One may read the Kd as the equilibrium constant for the complex coming apart. Usually IC50 stands for the concentration at which inhibition is half-maximal. A high value points to lower potency. Take “Z07960: FcRn binding Z variant, 58 amino acid residues, from phage display selection (VDAKYAKEFESAAHEIRWLPNLTYDQRVAFIHKLSDDPSQSSELLSEAKKLNDSQAPK; Engineered FcRn binding polypeptide)”: the “Tm (° C.)” value in series [1] was 58 °C. The Kd is 5e-08 M in the series with hFcRn (pH 6.0, read-out: KD (M) hFcRn pH 6.0); above 1e-06 M with hFcRn (pH 7.4, read-out: KD (M) hFcRn pH 7.4); 3.5e-07 M in the series with mFcRn (pH 6.0, read-out: KD (M) mFcRn pH 6.0); above 5e-06 M with mFcRn (pH 7.4, read-out: KD (M) mFcRn pH 7.4). Moreover, in series [2], the “binding to HeLa cells displaying human FcRn-eGFP” value is recorded as “capable of binding”. In addition, the “binding to HeLa cells displaying murine FcRn-eGFP” value in series [3] was “capable of binding”. In addition, in the series with human FcRn [4] (setting [7]), the IC50 worked out at 42 nM.
As a reminder, the koff is the first-order rate constant of dissociation. The kon is the rate constant with which the complex forms. For the substance “Z13621: FcRn binding Z variant from the maturated library (VDAKYAKEADAAGHEIRWLPNLTFDQRVAFIHKLRDDPSQSSELLSEAKKLNDSQAPK; Engineered FcRn binding polypeptide)”, the IC50 with human FcRn [4] (setting [8]) was 3.2 nM. Besides, in the series with human FcRn [5], the dissociation constant (Kd) was determined as 6 nM, the “koff” value was found to be 0.0037 s⁻¹ and the “kon” value turned out to be 640000 M⁻¹ s⁻¹.
“Z07909: FcRn binding Z variant, 58 amino acid residues, from phage display selection (VDAKYAKERQEAAHEIRWLPNLTFDQRVAFIVKLLDDPSQSSELLSEAKKLNDSQAPK; Engineered FcRn binding polypeptide)”: the “Tm (° C.)” value in series [1] was found to be 56 °C. For the same substance, the IC50 with human FcRn [4] (setting [7]) stood at 46 nM.
In the series with human FcRn [4] (setting [7]), “Z10183: FcRn binding Z variant, 58 amino acid residues, from phage display selection (VDAKYAKEADNAGHEIRWLPNLTWAQRWAFIHKLLDDPSQSSELLSEAKKLNDSQAPK; Engineered FcRn binding polypeptide)” displayed an IC50 of 39 nM. Besides, in the series with human FcRn [6], the Kd was 130 nM, the off-rate (koff) was determined as 0.13 s⁻¹ and the “kon” value was 1e+06 M⁻¹ s⁻¹.
For the substance “Z07930: FcRn binding Z variant, 58 amino acid residues, from phage display selection (VDAKYAKESDSAVHEIRWLPNLTFDQRVAFIHKLLDDPSQSSELLSEAKKLNDSQAPK; Engineered FcRn binding polypeptide)”, the “Tm (° C.)” value in series [1] stood at 56 °C. Further, the “binding to HeLa cells displaying human FcRn-eGFP” value in series [2] is reported as “capable of binding”. For the same substance, in series [3], the “binding to HeLa cells displaying murine FcRn-eGFP” value is “capable of binding”. The same substance displayed an IC50 in the series with human FcRn [4] (setting [7]) of 42 nM.
The substance “Z13577: FcRn binding Z variant from the maturated library (VDAKYAKEWHQAAHEIRWLPNLTFDQRVAFIHKLRDDPSQSSELLSEAKKLNDSQAPK; Engineered FcRn binding polypeptide)” had an IC50 with human FcRn [4] (setting [8]) of 12 nM. Also, in the series with human FcRn [5], the affinity, expressed as Kd, was 13 nM; the “koff” value is 0.004 s⁻¹; the “kon” value came out at 300000 M⁻¹ s⁻¹.
Turning to “Z10109: FcRn binding Z variant, 58 amino acid residues, from phage display selection (VDAKYAKEANTAAHEIRWLPNLTFDQRVAFIRKLWDDPSQSSELLSEAKKLNDSQAPK; Engineered FcRn binding polypeptide)”, the “Tm (° C.)” value in series [1] was found to be 61 °C. In the series with human FcRn [4] (setting [7]), this substance showed an IC50 of 57 nM.
Turning to “Z10140: FcRn binding Z variant, 58 amino acid residues, from phage display selection (VDAKYAKERSAAAHEIRWLPNLTFDQRVAFILKLTDDPSQSSELLSEAKKLNDSQAPK; Engineered FcRn binding polypeptide)”, the IC50 in the series with human FcRn [4] (setting [7]) was found to be 56 nM. In the series with human FcRn [6], the Kd was determined as 86 nM, the “koff” value amounted to 0.12 s⁻¹ and the “kon” value came out at 1.4e+06 M⁻¹ s⁻¹.
